# Test results taken from the supplement of paper PMC10037445.
# In all, about 2,900 compounds were measured (“IRF Lucia reporter activity, fold change vs agonist alone”: median about 0.9, highest 2% from about 2.8 on). The list shows a part of the results.
# How the values were obtained:
# [1] = test system: RAW-Dual; test: IRF Lucia reporter activity, fold change vs agonist alone; cytotoxicity flag (confluency mask): not cytotoxic; higher = enhanced IRF activity
# Outline: (§1)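 Supernatant from RAW-Dual macrophages was read after 20 hours for IRF by QuantiLuc luminescence and for NF-κB by QuantiBlue absorbance at 620 nm. The cells (50,000 cells/well in DMEM, 384-well plates, 37 °C, 5% CO2) had received 50 nL of library stock by pin tool and, 1 h later, a PRR agonist. Reporter activity is expressed relative to agonist-alone wells as fold change, and wells were flagged cytotoxic if IncuCyte confluency was under 70% of agonist controls in both mask sets.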
# [2] = test system: RAW-Dual; test: IRF Lucia reporter activity, fold change vs agonist alone; higher = enhanced IRF activity; details: agonist: MPLA (TLR4) […]
# Outline: as §1
# [3] = test system: RAW-Dual; test: IRF Lucia reporter activity, fold change vs agonist alone; cytotoxicity flag (confluency mask): cytotoxic (confluency <70% of control); higher = enhanced IRF activity
# Outline: as §1
# [4] = agonist: 3'3'-cGAMP (STING) 10 ug/mL
# [5] = library stock concentration (final ~1000-fold dilution): 10 mM, cytotoxicity flag (confluency mask): not cytotoxic
# [6] = library stock concentration (final ~1000-fold dilution): 10 mM, cytotoxicity flag (confluency mask): cytotoxic (confluency <70% of control)
smiles,measurement,setting,value
CCOc1ccccc1OC(c1ccccc1)C1CNCCO1.CS(=O)(=O)O (stereo not given) (library stock concentration (final ~1000-fold dilution): 10 mM),IRF Lucia reporter activity,[1]; [4],1.03
same,IRF Lucia reporter activity,[1]; agonist: LPS (TLR4) 0.1 ug/mL,0.984
CCOc1ccccc1OC(c1ccccc1)C1CNCCO1.CS(=O)(=O)O (stereo not given),IRF Lucia reporter activity,[2]; [5],0.611
CCOC(=O)C1=CC(OC(CC)CC)C(NC(C)=O)C(N)C1 (stereo not given),IRF Lucia reporter activity,"[2]; library stock concentration (final ~1000-fold dilution): 2 mM, cytotoxicity flag (confluency mask): not cytotoxic",1.32
CCOC(=O)C1=CC(OC(CC)CC)C(NC(C)=O)C(N)C1 (stereo not given) (library stock concentration (final ~1000-fold dilution): 2 mM),IRF Lucia reporter activity,[1]; [4],0.98
same,IRF Lucia reporter activity,[1]; agonist: LPS (TLR4) 0.1 ug/mL,1.07
CC(c1ncncc1F)C(O)(Cn1cncn1)c1ccc(F)cc1F (stereo not given),IRF Lucia reporter activity,[2]; [5],0.639
CC(c1ncncc1F)C(O)(Cn1cncn1)c1ccc(F)cc1F (stereo not given) (library stock concentration (final ~1000-fold dilution): 10 mM),IRF Lucia reporter activity,[1]; [4],1.11
same,IRF Lucia reporter activity,[1]; agonist: LPS (TLR4) 0.1 ug/mL,0.893
O=C(O)c1ccc2c(c1)nc(Nc1cccc(Cl)c1)c1ccncc12,IRF Lucia reporter activity,[2]; [5],0.637
O=C(O)c1ccc2c(c1)nc(Nc1cccc(Cl)c1)c1ccncc12 (library stock concentration (final ~1000-fold dilution): 10 mM),IRF Lucia reporter activity,[1]; [4],0.908
same,IRF Lucia reporter activity,[1]; agonist: LPS (TLR4) 0.1 ug/mL,0.197
O=C1CC(=O)c2c(Cl)c(Cl)c(Cl)c(Cl)c21 (library stock concentration (final ~1000-fold dilution): 10 mM),IRF Lucia reporter activity,[1]; [4],0.849
same,IRF Lucia reporter activity,[1]; agonist: LPS (TLR4) 0.1 ug/mL,0.863
O=C1CC(=O)c2c(Cl)c(Cl)c(Cl)c(Cl)c21,IRF Lucia reporter activity,[2]; [5],0.918
CNC(=O)c1nn(C)c2c1C(C)(C)Cc1cnc(Nc3ccc(N4CCN(C)CC4)cc3)nc1-2,IRF Lucia reporter activity,[2]; [6],0.165
CNC(=O)c1nn(C)c2c1C(C)(C)Cc1cnc(Nc3ccc(N4CCN(C)CC4)cc3)nc1-2 (library stock concentration (final ~1000-fold dilution): 10 mM),IRF Lucia reporter activity,[3]; [4],0.123
same,IRF Lucia reporter activity,[3]; agonist: LPS (TLR4) 0.1 ug/mL,0.0126
Cc1ccc(/C=N/NC(=O)c2ccccc2Oc2ccccc2)o1 (library stock concentration (final ~1000-fold dilution): 10 mM),IRF Lucia reporter activity,[1]; [4],1.16
same,IRF Lucia reporter activity,[1]; agonist: LPS (TLR4) 0.1 ug/mL,1.03
CC(C)(C)OC(=O)NC1CCCCC/C=C\C2CC2(C(=O)NS(=O)(=O)C2CC2)NC(=O)C2CC(OC(=O)N3Cc4cccc(F)c4C3)CN2C1=O (stereo not given) (library stock concentration (final ~1000-fold dilution): 10 mM),IRF Lucia reporter activity,[1]; [4],0.932
same,IRF Lucia reporter activity,[1]; agonist: LPS (TLR4) 0.1 ug/mL,1.13
CC(C)(C)OC(=O)NC1CCCCC/C=C\C2CC2(C(=O)NS(=O)(=O)C2CC2)NC(=O)C2CC(OC(=O)N3Cc4cccc(F)c4C3)CN2C1=O (stereo not given),IRF Lucia reporter activity,[2]; [5],1.04
CC1CNC(=O)c2cnn3ccc(nc23)NC(C)c2cc(F)ccc2O1 (stereo not given) (library stock concentration (final ~1000-fold dilution): 10 mM),IRF Lucia reporter activity,[1]; [4],0.187
same,IRF Lucia reporter activity,[1]; agonist: LPS (TLR4) 0.1 ug/mL,0.804
CNc1nc(-c2ccc3c(N)n[nH]c3c2)cc(N2CC(C(=O)NC3CCCCC3)CCC2C)n1 (stereo not given) (library stock concentration (final ~1000-fold dilution): 10 mM),IRF Lucia reporter activity,[1]; [4],0.0916
same,IRF Lucia reporter activity,[1]; agonist: LPS (TLR4) 0.1 ug/mL,0.976
CNc1nc(-c2ccc3c(N)n[nH]c3c2)cc(N2CC(C(=O)NC3CCCCC3)CCC2C)n1 (stereo not given),IRF Lucia reporter activity,[2]; [5],1.03
Nc1nccc(Oc2ccc3c(C(=O)Nc4cccc(C(F)(F)F)c4)cccc3c2)n1 (library stock concentration (final ~1000-fold dilution): 10 mM),IRF Lucia reporter activity,[1]; [4],0.452
same,IRF Lucia reporter activity,[1]; agonist: LPS (TLR4) 0.1 ug/mL,0.834
Oc1ccc(O)cc1,IRF Lucia reporter activity,[2]; [5],0.096
Oc1ccc(O)cc1 (library stock concentration (final ~1000-fold dilution): 10 mM),IRF Lucia reporter activity,[1]; [4],0.292
same,IRF Lucia reporter activity,[1]; agonist: LPS (TLR4) 0.1 ug/mL,0.0664
O=C(/C=C/c1ccc2ccc(C(F)(F)F)cc2n1)c1ccncc1 (library stock concentration (final ~1000-fold dilution): 10 mM),IRF Lucia reporter activity,[3]; [4],0.549
same,IRF Lucia reporter activity,[3]; agonist: LPS (TLR4) 0.1 ug/mL,0.291
CN1CCN(c2cccc(Nc3nc4c(-c5ccc(S(C)(=O)=O)cc5)cccn4n3)c2)CC1,IRF Lucia reporter activity,[2]; [5],0.367
CN1CCN(c2cccc(Nc3nc4c(-c5ccc(S(C)(=O)=O)cc5)cccn4n3)c2)CC1 (library stock concentration (final ~1000-fold dilution): 10 mM),IRF Lucia reporter activity,[1]; [4],0.0354
same,IRF Lucia reporter activity,[1]; agonist: LPS (TLR4) 0.1 ug/mL,0.215
O.O=C(O)c1ncccc1[O-].O=C([O-])c1ncccc1[O-].[H+].[O]=[V][OH] (library stock concentration (final ~1000-fold dilution): 10 mM),IRF Lucia reporter activity,[1]; [4],0.574
same,IRF Lucia reporter activity,[1]; agonist: LPS (TLR4) 0.1 ug/mL,1.3
C=C1C(=O)O[C@H]2[C@H]1CC/C(C)=C\CC[C@@]1(C)O[C@@H]21 (library stock concentration (final ~1000-fold dilution): 10 mM),IRF Lucia reporter activity,[1]; [4],0.0236
same,IRF Lucia reporter activity,[1]; agonist: LPS (TLR4) 0.1 ug/mL,0.0241
CC(OCC1(c2ccccc2)CCC2(CCC(=O)N2)CN1)c1cc(C(F)(F)F)cc(C(F)(F)F)c1 (stereo not given),IRF Lucia reporter activity,[2]; [6],0.916
CC(OCC1(c2ccccc2)CCC2(CCC(=O)N2)CN1)c1cc(C(F)(F)F)cc(C(F)(F)F)c1 (stereo not given) (library stock concentration (final ~1000-fold dilution): 10 mM),IRF Lucia reporter activity,[3]; [4],0.981
same,IRF Lucia reporter activity,[3]; agonist: LPS (TLR4) 0.1 ug/mL,0.747
